# Assay results as given in PubChem BioAssay AID485294 (National Center for Advancing Translational Sciences (NCATS), 2010).
# In all, about 370,000 compounds went through this assay and about 150 (0.041%) were called active. Inconclusive means that the source gave no clear call. Such entries were picked first, then a sample of the others. Calls come from the whole dose curve; as a rule, active = well fitted inhibition curve with a large enough effect; inconclusive = small, poorly fitted or top-dose-only effect; inactive = flat fitted curve, though single readings scatter. Potencies of inconclusive entries are left out as doubtful fits.
# Target: Beta-lactamase (Escherichia coli (strain K12)) (UniProt P00811)
# Assay: qHTS Inhibitors of AmpC Beta-Lactamase (assay with detergent); note: nearly all actives have a fitted effect of over 25% in size;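 for activity change, negative = inhibition: 0% = no-compound wells and -100% = no-enzyme wells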
# Conditions: AmpC hydrolysis of nitrocefin, absorbance 480 nm, 0.01% Triton; activity change, negative = inhibition: at 114 µM (top of the series)
# How it was run: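 AmpC (5.3 nM in the dispensed reagent) in 20 mM phosphate pH 7.0 with 0.01% (detergent screen) or 0.0001% Triton X-100 was preincubated with compounds for 15 min at room temperature. Nitrocefin was then added from an 800 uM solution, and hydrolysis was followed at 480 nm.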
# Potency is the fitted concentration of half-maximal effect; tags give direction and shape of the fitted curve.
# Chain of UniProt P00811 (P00811 whole entry, looked up): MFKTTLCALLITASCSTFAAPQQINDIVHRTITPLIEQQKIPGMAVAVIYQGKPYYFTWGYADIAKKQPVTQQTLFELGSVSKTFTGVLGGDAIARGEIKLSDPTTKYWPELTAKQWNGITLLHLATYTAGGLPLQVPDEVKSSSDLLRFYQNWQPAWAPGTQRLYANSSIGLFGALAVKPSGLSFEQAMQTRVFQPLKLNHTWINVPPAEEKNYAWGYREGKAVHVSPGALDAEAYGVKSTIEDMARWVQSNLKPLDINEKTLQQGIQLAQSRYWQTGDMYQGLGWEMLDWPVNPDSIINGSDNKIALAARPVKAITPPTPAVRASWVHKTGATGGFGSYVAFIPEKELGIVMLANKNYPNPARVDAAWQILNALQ
SMILES,Potency,"activity change, negative = inhibition"
COc1cccc(S(=O)(=O)NCc2ccc(C(=O)Nc3cccc(Cl)c3)cc2)c1,"inconclusive [inhibitor, single point]",
CCOc1cc(C(=O)Nc2cc(C)ccn2)cc(OCC)c1OCC,"inconclusive [inhibitor, partial curve, poor fit]",
O=C1c2ccccc2C(=O)N1COc1ccc(S(=O)(=O)N2CCOCC2)cc1[N+](=O)[O-],"inconclusive [inhibitor, full curve, poor fit]",
CN1C(=O)NC(c2ccc(O)cc2)C2=C1CN(c1cccc3ccccc13)C2=O (stereo not drawn),"inconclusive [inhibitor, single point]",
Cc1cc(C)c(NC(=O)COC(=O)Cc2cccs2)c(C)c1,"inconclusive [inhibitor, partial curve, poor fit]",
CC(C)S(=O)(=O)c1csc(NC(=O)Nc2cccc([N+](=O)[O-])c2)c1Cl,,inactive: 7.5%
Cc1cc(C)c(C#N)c(SCC(=O)Nc2ccccc2C#N)n1,,inactive: 6.31%
COc1ccc(C(=O)Nc2ccccc2N2CCOCC2)cc1S(=O)(=O)N1CCOCC1,,inactive: 0.0084%
COCCCN1C(=O)c2ccc(C(=O)NCc3ccco3)cc2C1=O,"inconclusive [inhibitor, partial curve, poor fit]",
CS(=O)(=O)N(CC(=O)NC1CC1)c1cccc(F)c1,"inconclusive [inhibitor, partial curve]",
Cc1cc(F)ccc1NC(=O)CCc1c(C)nn(-c2ccc(N3CCCCC3)nn2)c1C,"inconclusive [inhibitor, full curve, poor fit]",
O=C(O)CNS(=O)(=O)c1ccc(C2CCCCC2)cc1,"inconclusive [inhibitor, full curve, poor fit]",
COCCN(CCOC)C(=O)C12CCC(C)(C(=O)C1)C2(C)C (stereo not drawn),"inconclusive [inhibitor, full curve, poor fit]",
CC(C)(C)c1ccc(C[C@H](C(=O)O)N2C(=O)c3ccc(C(=O)O)cc3C2=O)cc1,"inconclusive [inhibitor, full curve]",
Cc1ccc(-n2c(SCC(=O)N3CCOCC3)nnc2-c2cccnc2)cc1,,inactive: 2.49%
O=C(Cc1ccccc1)Nc1nc(-c2cccc([N+](=O)[O-])c2)cs1,"inconclusive [inhibitor, full curve, poor fit]",
O=C(N/N=C/c1ccco1)c1cccc(NC(=O)c2cccc(Cl)c2)c1,,inactive: -2.01%
COc1ccc(OC(C)C(=O)N2CCOCC2)cc1 (stereo not drawn),"inconclusive [inhibitor, partial curve, poor fit]",
COc1ccc(NC(=O)c2cccc(S(=O)(=O)N3CCc4ccccc43)c2)cn1,,inactive: 1.19%
CCOC(=O)c1ccc(N=C2C(=S)N(c3ccc(C(=O)OCC)cc3)C(=N)N2/N=C/c2ccccc2)cc1,,inactive: 0.111%
COc1cccc(OC)c1C(=O)Nn1c(-c2cccc(C)c2)nc2ccccc2c1=O,,inactive: 1.53%
Cc1ccc(NC(=O)N2CCCc3ccccc32)cc1C,"inconclusive [inhibitor, full curve]",

SMILES,Potency,"activity change, negative = inhibition"
C=CCc1ccccc1OCC(O)CN1CCN(c2ccc(OC)cc2)CC1 (stereo not drawn),"inconclusive [inhibitor, single point]",
COC(=O)CN1C(=O)CC(C)(C)Sc2ccccc21,"inconclusive [inhibitor, full curve, poor fit]",
Cn1cccc1C(=O)OCC(=O)NC(=O)NC1CCCCC1,,inactive: 4.45%
CCn1c(SCC(=O)c2cccs2)nnc1-c1cccs1,"inconclusive [inhibitor, full curve, poor fit]",
COC(=O)CNC(c1ccccc1)c1cc(Br)ccc1NC(=O)c1cc(OC)c(OC)c(OC)c1 (stereo not drawn),,inactive: 9.73%
O=C(CSc1nnnn1-c1ccc(F)cc1)Nc1ccc(N2CCOCC2)c(Cl)c1,"inconclusive [inhibitor, full curve, poor fit]",
Cc1cc(C(=O)N(C)C2CCCCC2)no1,"inconclusive [inhibitor, single point]",
COc1ccccc1NC(=O)Oc1ccc(NC(=O)c2ccco2)cc1,"inconclusive [inhibitor, full curve, poor fit]",
Cn1c(=O)[nH]c(=O)c2c1nc(CN1CCN(c3cccc(Cl)c3)CC1)n2CCc1ccccc1,"inconclusive [inhibitor, single point]",
CN(Cc1ccco1)c1ncnc2ccc(-c3ccc4c(ccn4C)c3)cc12,inactive,
CC(C)CN(CC(C)C)C(=O)C12CCC(C)(C(=O)O1)C2(C)C (stereo not drawn),"inconclusive [inhibitor, partial curve]",
CCCOc1ccccc1NC(=O)c1ccc([N+](=O)[O-])cc1,,inactive: -9.38%
O=C(NCc1cccnc1)c1ccc(Cl)c(Cl)c1,"inconclusive [inhibitor, partial curve]",
COc1ccc(-c2[nH]c(-c3ccc(F)cc3)nc2SCC(=O)Nc2ccc(OC)c(OC)c2)cc1,,inactive: 8.84%
CCN1C(=C2C(=O)c3ccccc3C2=O)C=Cc2ccccc21,,inactive: -11.2%
O=C(CSc1nncs1)N1CCN(C(=O)c2ccco2)CC1,"inconclusive [inhibitor, full curve, poor fit]",
Nc1ccc(C(=O)N/N=C/c2sc(N3CCOCC3)nc2-c2ccccc2)cc1,"inconclusive [inhibitor, partial curve, poor fit]",
O=c1c2ccccc2[nH]c(=S)n1Cc1cccnc1,"inconclusive [inhibitor, partial curve, poor fit]",
CC(C)=CCc1c(O)ccc(C(=O)Cc2ccccc2)c1O,"inconclusive [inhibitor, partial curve]",
Cc1ccc(NC(=O)N2CCCN(C(=O)OC(C)(C)C)CC2)cc1Cl,"inconclusive [inhibitor, single point]",
COc1ccc(CCN(C)C2CCCN(C(=O)Cn3cccn3)C2)cc1OC (stereo not drawn),"inconclusive [inhibitor, partial curve, poor fit]",
